# Laboratory results reported in PubChem BioAssay (NCATS).
# The inconclusive results got no clear call from the source; some entries with a clear call stand among them for comparison. Entries that show only a call come without a potency. For part of these data: Potencies beside an inconclusive call are fits to weak or partial responses and may not hold up. Calls of active or inactive are those of the source. The call rests on the fitted dose curve; in most records, active means well fitted curve in the direction sought with a large enough effect; inconclusive means small, poorly fitted or top-dose-only effect, or another doubt; inactive means no such curve, though single readings can be large; an effect the other way counts as inactive or inconclusive.
# Assays:
# [1] = target: Muscarinic acetylcholine receptor M1 (Rattus norvegicus) (UniProt P08482); experiment: qHTS Assay for Antagonists of Acetylcholine Muscarinic M1 Receptor: Measurement of IP-One Response (AID 944); further: nearly all actives have a fitted effect of over 75% in size
# Chain of UniProt P08482 (P08482 whole entry, looked up): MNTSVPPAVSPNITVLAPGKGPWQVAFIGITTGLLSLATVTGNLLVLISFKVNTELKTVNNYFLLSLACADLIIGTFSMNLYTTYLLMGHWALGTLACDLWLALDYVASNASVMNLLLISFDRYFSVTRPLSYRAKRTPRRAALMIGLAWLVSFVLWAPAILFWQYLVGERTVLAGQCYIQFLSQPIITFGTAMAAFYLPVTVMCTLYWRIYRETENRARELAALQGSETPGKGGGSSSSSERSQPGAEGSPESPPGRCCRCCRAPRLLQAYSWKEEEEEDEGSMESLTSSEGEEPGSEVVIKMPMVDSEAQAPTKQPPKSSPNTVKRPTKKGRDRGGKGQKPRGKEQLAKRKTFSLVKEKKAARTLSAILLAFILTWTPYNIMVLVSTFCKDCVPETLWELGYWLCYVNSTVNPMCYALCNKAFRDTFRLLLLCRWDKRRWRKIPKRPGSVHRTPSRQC
# [2] = qHTS of pediatric cancer cell lines to identify multiple opportunities for drug repurposing: Primary screen for A673 cells (AID 1347092); settings: A673 Ewing sarcoma viability, CellTiter-Glo ATP luminescence, 48 h; activity change, negative = cytotoxic: at 46 µM (top of the series); further: nearly all actives have a fitted effect of over 45% in size
# Method in brief: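 Cells are plated, rested 5 h, dosed by pintool, incubated 48 h, then lysed with CellTiter-Glo and read by luminescence. DMSO is the neutral control; bortezomib at 2.3 uM final is the positive control.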
# [3] = qHTS of pediatric cancer cell lines to identify multiple opportunities for drug repurposing: Primary screen for OHS-50 cells (AID 1347103); settings: OHS-50 osteosarcoma viability, CellTiter-Glo luminescence, 48 h; activity change, negative = cytotoxic: at 57.3 µM (top of the series); further: nearly all actives have a fitted effect of over 40% in size
# Method in brief: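 Cells (500-1,000/well) rested 5 h, then received compounds for 48 h; metabolically active cells were measured by CellTiter-Glo luminescence. Final concentrations spanned up to 46 µM (MIPE, 11-point) or 0.59 nM-46 µM (NPC, 8-point) in primary screens, 11-point in follow-ups.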
# [4] = qHTS of pediatric cancer cell lines to identify multiple opportunities for drug repurposing: Primary screen for RD cells (AID 1347104); further: nearly all actives have a fitted effect of over 55% in size
# Method in brief: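 Luminescence from CellTiter-Glo served as readout of metabolically active cells after 48 h compound exposure. Titrations: MIPE 11-point, from 0.78 nM; NPC 8-point, from 0.59 nM (final). Concentration-response curves came straight from the primary screen.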
# [5] = qHTS to identify inhibitors of the type 1 interferon - major histocompatibility complex class I in skeletal muscle: primary screen against the NCATS Mechanism Interrogation Plate v5.0 (MIPE) Libary (AID 1347411); settings: iHSKM cells + IFN-b, HiBiT-tagged MHC-I luminescence, 24 h; series mostly up to 45.8 µM; further: potency means the concentration at half of the fitted maximal effect; nearly all actives have a fitted effect of over 65% in size
# Method in brief: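 Cells were genome-edited human myoblasts carrying a HiBit tag on endogenous HLA-B. They were treated with IFN-beta (4.0 ng/ml) and titrated compounds (top 46 uM) for 24 hrs before lytic HiBiT detection.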
# [6] = Primary qHTS for inhibitors of nuclear receptor binding SET domain protein 2 (NSD2) in an RCH-ACV wild type WT cells (2C) (AID 1645877); settings: activity change, negative = cell killing: at 44.9 µM (top of the series) unless noted; further: potency means the concentration at half of the fitted maximal effect; nearly all actives have a fitted effect of over 70% in size
# Tags describe the fitted curve by direction and shape.
compound,measurement,setting,value
NC(N)=NCc1cccc(I)c1,Potency,[1],inactive
NC(=O)c1cc[n+](CC2=C(C(=O)[O-])N3C(=O)[C@@H](NC(=O)Cc4cccs4)[C@H]3SC2)cc1,Potency,[2],inactive
same,Potency,[3],inactive
same,Potency,[4],inactive
CN(C)CCOc1ccc(/C(=C(/CCCl)c2ccccc2)c2ccccc2)cc1,Potency,[5],"inconclusive: 18.6 µM [inhibitor, partial curve, poor fit]"
same,Potency,[6],"inconclusive: 5.9 µM [inhibitor, full curve]"
